# Measured values as given in the BET-seq Pho4 binding data (Le et al. 2018).
# Some of the results follow. Values were computed here from the reads of four pooled replicates and scatter widely.
# Molecular target: T1, Pho4 (S. cerevisiae) (UniProt P07270)
# T1 sequence: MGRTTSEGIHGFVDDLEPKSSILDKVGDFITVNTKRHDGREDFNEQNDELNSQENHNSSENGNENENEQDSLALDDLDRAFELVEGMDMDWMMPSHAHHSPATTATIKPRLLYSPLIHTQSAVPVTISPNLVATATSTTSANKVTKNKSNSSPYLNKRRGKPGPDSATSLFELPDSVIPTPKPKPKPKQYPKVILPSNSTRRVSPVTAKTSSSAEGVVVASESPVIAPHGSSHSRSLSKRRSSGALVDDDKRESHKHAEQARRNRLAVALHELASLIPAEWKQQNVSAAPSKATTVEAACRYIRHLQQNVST
# Experiment: relative binding free energy (BET-seq); higher = weaker binding
# Conditions: reference: library average
row,Sequence,relative binding free energy [kcal/mol]
1,TGAATCACGTGTCAGG,0.21
2,GTCTACACGTGTTGTG,0.12
3,CGCGGCACGTGAGTGG,0.05
4,TGAAACACGTGGTGGT,-0.12
5,TTTTACACGTGTTCGA,0.07
6,ACGGTCACGTGTTTTT,0.16
7,GGTAGCACGTGTCGTG,-0.06
8,CTTTACACGTGATGTT,0.14
9,AAGGGCACGTGCGGTA,-0.28
10,GATGGCACGTGCTTGT,-0.16
11,CGTTGCACGTGCCGGG,-0.22
12,ATTTGCACGTGGTGTG,-0.1
13,GAGGCCACGTGTTGGG,0.01
14,GGATTCACGTGGGGCA,0.21
15,TTCATCACGTGGGGTC,0.13
16,GGGAGCACGTGTGCTG,-0.11
17,GGTCGCACGTGAGCTG,0.24
18,GTAGGCACGTGGTTTC,-0.16
19,AGTGTCACGTGATCGT,0.14
20,TAGATCACGTGTAGAG,0.18
21,CTTATCACGTGGGTTA,0.08
22,TGGTGCACGTGAAGGT,0.35
23,GTTTACACGTGCTTAT,0.07
24,ACTTGCACGTGTTTGT,-0.03
25,ATTTTCACGTGACAAT,0.35
26,GGGTTCACGTGATGGG,0.52

row,Sequence,relative binding free energy [kcal/mol]
1,GTTACCACGTGGGGAG,-0.15
2,TAGGGCACGTGATAAT,0.02
3,GTTACCACGTGGGTGG,-0.22
4,TGATTCACGTGGAGCT,0.24
5,AGCTGCACGTGGTGTA,-0.21
6,TGGGTCACGTGGTTTG,0.21
7,GGTGCCACGTGCGCGG,-0.2
8,AAGTTCACGTGAGTTA,0.34
9,TTAAGCACGTGAGGAA,0.22
10,TTAAGCACGTGGAATA,0.04
11,GATGTCACGTGCTAGG,0.01
12,ATTGTCACGTGTTAAA,0.08
13,AAATACACGTGAAGTG,0.25
14,CTAGGCACGTGTGTGC,-0.11
15,GGGAACACGTGTTAGG,0.07
16,CGTTTCACGTGAGTTT,0.31
17,GTTAGCACGTGTATGA,0.05
18,ATAGGCACGTGGCTTT,-0.18
19,AATCGCACGTGGGGTT,-0.11
20,GGTCTCACGTGGTAGA,0.29
21,TTTTTCACGTGTCCAT,0.24
22,TATGCCACGTGTTGGA,-0.17
23,ATTGGCACGTGTATTG,-0.01
24,TGTCTCACGTGTAAGT,0.2
25,CGTTTCACGTGGATAT,0.32
26,TAATCCACGTGTGTGG,0.12

row,Sequence,relative binding free energy [kcal/mol]
1,TTGTTCACGTGGATCG,0.22
2,AAGGTCACGTGCGGTG,-0.1
3,GATTTCACGTGATGTT,0.41
4,GGTCTCACGTGGGCGC,0.22
5,GGATTCACGTGTAGCG,0.3
6,AGTAACACGTGGTCAT,0.03
7,AGTTACACGTGTGTTA,0.25
8,GTTTCCACGTGTTTGT,0.08
9,TGGTGCACGTGCGAGG,0.01
10,TATCACACGTGGTTGG,-0.03
11,ACGTGCACGTGGATGG,-0.08
12,TATGCCACGTGGTATT,-0.25
13,GGGGGCACGTGACGAG,0.08
14,GTGTTCACGTGCGAGG,0.25
15,TTCATCACGTGGGGAT,0.11
16,GTTTTCACGTGAGCGG,0.4
17,GTATACACGTGTCTGT,0.03
18,GGCGACACGTGTGTGT,0.16
19,CGGGTCACGTGGGTGC,-0.05
20,GGAATCACGTGTGGGT,0.22
21,GATTGCACGTGCGGGC,0
22,TCGGGCACGTGCGGTA,-0.28
23,CGTGGCACGTGTTTGA,-0.06
24,AGCTGCACGTGGGTTT,-0.11
25,GGCCGCACGTGTGTTT,0.03
26,TATGGCACGTGTAGCT,-0.03

row,Sequence,relative binding free energy [kcal/mol]
1,TTTGGCACGTGATTAC,0.02
2,TTTCGCACGTGTCGGT,0.04
3,AGAAGCACGTGGGAAG,-0.17
4,TAATTCACGTGGAGGG,0.26
5,TTTGGCACGTGACCTT,-0.06
6,GACGGCACGTGGTTTG,-0.05
7,AAGGACACGTGCGTTT,-0.01
8,GTGTGCACGTGGCTTA,-0.01
9,CTTATCACGTGAGTGG,0.28
10,ATTAACACGTGAGGGT,0.21
11,TTTGGCACGTGAGCGG,0.12
12,GTTCTCACGTGGTATT,0.33
13,GGTAGCACGTGTTGTC,-0.15
14,TTGTACACGTGGTGAA,-0.07
15,TTCGTCACGTGGAATG,0.14
16,GTCTGCACGTGTGTCT,0.03
17,ATGGTCACGTGAAAGT,0.44
18,TGTGGCACGTGTTGCC,-0.08
19,GTATTCACGTGTTGTG,0.29
20,TTAGGCACGTGGAGCG,-0.07
21,CTTTTCACGTGTGGAG,0.35
22,TTGCGCACGTGGAGTT,-0.08
23,GGTGACACGTGTAAGT,0.15
24,GAGTCCACGTGATGGG,0.14
25,TGGTCCACGTGGGGGT,-0.13
26,GGGTTCACGTGCAAAT,0.37

row,Sequence,relative binding free energy [kcal/mol]
1,TGTTGCACGTGGGTGT,-0.05
2,TTGTCCACGTGCTTTA,0.11
3,ACAAGCACGTGTTAGT,-0.01
4,TAAGGCACGTGTAATA,-0.06
5,TCAGGCACGTGCTGGT,-0.22
6,GGCGGCACGTGTGGCG,-0.04
7,GGCTGCACGTGCCGGG,-0.09
8,TTTTGCACGTGTACGA,0.03
9,ATGTACACGTGCGTTA,-0.08
10,AGGGGCACGTGATGAG,0
11,CGTAGCACGTGTTAAT,-0.07
12,ATTCGCACGTGTTAAT,0.11
13,TATAGCACGTGGGTGT,-0.19
14,TTACGCACGTGTGTAG,-0.14
15,AGGTGCACGTGAAAGC,0.2
16,TGCATCACGTGGGAGA,0.07
17,AAGTTCACGTGTATTG,0.2
18,TGTAACACGTGTGGGA,0.15
19,GAGAACACGTGTTGAT,0.26
20,AGGACCACGTGAGGGG,0.09
21,ACATGCACGTGGTTGT,-0.14
22,TAGTACACGTGTGATC,0.33
23,TTTTGCACGTGCGTTT,-0.09
24,TGGGACACGTGCAGGG,-0.02
25,GTTTTCACGTGAGTTA,0.35
26,TAGGACACGTGAGGGC,0.21

row,Sequence,relative binding free energy [kcal/mol]
1,GTGAGCACGTGGGTCA,-0.18
2,ATTGTCACGTGGCCGG,-0.01
3,GTCCACACGTGGGGGG,-0.02
4,TGCGTCACGTGAAGGC,0.37
5,AAGGGCACGTGTTAAG,-0.02
6,AGAGTCACGTGGCTTG,0.05
7,TTTTTCACGTGGCAAG,0.31
8,ACTTTCACGTGGGATG,0.09
9,ATGTTCACGTGGGCAG,0.08
10,TTGGGCACGTGGATGG,-0.01
11,TAATTCACGTGTGTAG,0.28
12,GGAGGCACGTGGATGT,-0.12
13,GTATTCACGTGTGGAG,0.35
14,AGATACACGTGGGGAG,0.04
15,GGACTCACGTGAGGTT,0.44
16,TGAGACACGTGGCGGT,0
17,ACGGTCACGTGGTGCG,0
18,CCATTCACGTGGTTTT,0.27
19,CCTGGCACGTGTGGAG,0.02
20,CTATGCACGTGCGTTT,-0.11
21,TCGTACACGTGGGGAT,-0.19
22,AAGGTCACGTGGTATC,0.21
23,CGTAGCACGTGATTGG,0.05
24,TATGTCACGTGTTTCA,-0.07
25,GTGTTCACGTGGAATA,0.32
26,GGGGGCACGTGTGGTT,0.05

row,Sequence,relative binding free energy [kcal/mol]
1,AGATACACGTGAATGT,0.25
2,TCAGTCACGTGGTATG,-0.04
3,CTTTTCACGTGGGTTA,0.21
4,TTATGCACGTGGTTAA,-0.06
5,GGATGCACGTGCAGGT,-0.01
6,GGGATCACGTGGCGAG,0.12
7,TATGACACGTGATCGG,-0.01
8,TGTCACACGTGTTATG,0.03
9,TGTTTCACGTGGGGAG,0.22
10,TTAATCACGTGTGAAG,0.26
11,GAAAACACGTGTGTGG,0.03
12,TTACACACGTGGGGTA,-0.2
13,GTTCGCACGTGCGGGT,-0.1
14,AAGGGCACGTGATGCT,-0.08
15,GGGTACACGTGAGCTT,0.18
16,TGTGACACGTGAGAAT,0.21
17,TTGATCACGTGATGCT,0.2
18,GTCTGCACGTGTTGGT,0.06
19,CTGTTCACGTGGGGCA,-0.02
20,GGGAGCACGTGCGTCG,-0.12
21,TATGTCACGTGCAGCT,0.17
22,GTGAGCACGTGAGTGG,0.16
23,GAAGGCACGTGTGAGG,-0.18
24,AGTAACACGTGAAGGA,0.39
25,GCTTTCACGTGTTTTA,0.27
26,TTTATCACGTGTAATT,0.28

row,Sequence,relative binding free energy [kcal/mol]
1,AGGGGCACGTGTAGCA,-0.24
2,ACATGCACGTGAGGGG,0.04
3,TGTAGCACGTGAATAG,0.07
4,TAAATCACGTGTGCTG,0.15
5,TGTGCCACGTGATGTT,0.01
6,AGGGTCACGTGAATTA,0.17
7,ACAGGCACGTGATGGT,-0.02
8,AAAGTCACGTGGGTTC,-0.05
9,TAGTACACGTGTGGAC,0.22
10,TAGCTCACGTGTATGG,0.18
11,TGTGTCACGTGCGAGC,-0.07
12,GAGTTCACGTGGAGGG,0.41
13,GTGGCCACGTGGGGGC,-0.12
14,ATGTACACGTGCAGTT,0.05
15,TTAGCCACGTGGGAGT,-0.17
16,GCGGTCACGTGTGTTT,0.2
17,TGTAGCACGTGAATGC,0.22
18,TTAGCCACGTGGAGTG,-0.23
19,TTTTTCACGTGTGTAC,0.3
20,GTGATCACGTGAAGGA,0.37
21,ATATACACGTGTGTCT,0.02
22,TGTGTCACGTGATTTC,0.34
23,TTGACCACGTGTAGTG,-0.13
24,GCGGACACGTGGGGTT,-0.09
25,GGTCACACGTGTTGGG,0.09
26,TTGTGCACGTGTGGGT,0.12

row,Sequence,relative binding free energy [kcal/mol]
1,GATTTCACGTGGAGTA,0.15
2,ATAATCACGTGGATGT,0.05
3,TTAACCACGTGGGGGT,-0.22
4,GCTTTCACGTGTATGG,0.27
5,TAGTTCACGTGTATGT,0.25
6,AAGGTCACGTGGTAAT,0.08
7,GTGTGCACGTGGTCAT,0.04
8,AACTACACGTGTGGTT,0.16
9,TATGGCACGTGGTAAA,-0.26
10,GCGTTCACGTGTTGTA,0.15
11,TAGAGCACGTGAAGGT,0.23
12,TAAAGCACGTGAGGGT,0.11
13,GGACGCACGTGGGTCG,-0.32
14,TCTCTCACGTGGGGTG,0.13
15,ATAGTCACGTGTTCTT,-0.08
16,TATGGCACGTGTATTT,0.06
17,GTTTACACGTGATCTT,0.29
18,TGTATCACGTGACGTT,0.18
19,TCGGACACGTGTGGTT,0.15
20,TTGTCCACGTGACGTG,0.26
21,AGATGCACGTGAAGCG,0.18
22,TGTGCCACGTGTTGAT,-0.03
